The values below come from the supplement of paper PMC11417369.

Some of the results follow.

The test system of the experiment is PfAP2-HC AP2 domain (GST-tagged). The experiment can be described thus: gcPBM binding intensity (ln(normalized median fluorescence intensity)); higher = stronger DNA binding. In short, it runs like this: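 Each value is the highest Masliner-normalised natural-log median intensity across replicate spots of either orientation of a probe. The probes were primer-extended double-stranded 36-bp intergenic genomic sequences on an Agilent 4 × 180k array, alongside negative controls, exposed for 1 h to GST-tagged P. falciparum DNA-binding domains expressed in E. coli. Bound protein was picked up with Alexa488 anti-GST antibody and scanned at 488 nm.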
In the case of “ATACATATTACATGTTGTACTCCAACAAAAATGCCC [XGTACX_site3201]”, the “gcPBM binding intensity (ln)” value came to 9.67.

In the case of “TTAATTTCATTTTCTACACACCTATCCTTTTTTTTT [CACACA_site772]”, the “gcPBM binding intensity (ln)” value came out at 9.88.

On to “ACATCAAGAATTATTAAGAATACGGATAGATAAAAT [GTGCAC_negctrl_site261]”, for which the “gcPBM binding intensity (ln)” value came to 9.57.

Turning to “AATAAAAAAAGTTTTTTTTTTTTTTAAACAATAGAC [CACACA_negctrl_site1061]”, the “gcPBM binding intensity (ln)” value is 9.49.

In the case of “ATAATAATAATAAAAAGTACATTTAATTATATAGAA [XGTACX_site7742]”, the “gcPBM binding intensity (ln)” value was found to be 9.69.

As for “AATAACCACCAACACACACACATATATATATATATA [CACACA_site3540]”, the “gcPBM binding intensity (ln)” value stood at 10.2.

On to “AAAAATTTAATGAAATGTACATATATGTTATTAATA [XGTACX_site6091]”, for which the “gcPBM binding intensity (ln)” value stood at 9.6.

As to “TATATGTTTTAAAAGTGTACTTTAGTTTCAATTTTT [XGTACX_site4269]”, the “gcPBM binding intensity (ln)” value was 9.49.

As to “AAGAATGTTAATAGTACACACAATTATTATATAAAT [CACACA_site3739]”, the “gcPBM binding intensity (ln)” value is 9.93.

With “AATGTATATATGTAATGTACATATGTAATGTATATA [XGTACX_site6509]”, the “gcPBM binding intensity (ln)” value turned out to be 9.94.

As for “TTTTGTTTTGTTTTGTTTTGTTTTGTTTTATTTTAT [GTGCAC_negctrl_site383]”, the “gcPBM binding intensity (ln)” value was determined as 9.72.

For the sequence “AATATAGATATAACCACACACATACATCTAATTCTA [CACACA_site1760]”, the “gcPBM binding intensity (ln)” value stood at 10.2.

With GAAAAGAACAAGAGCATGCACTTAATAAGAATAATA, the “gcPBM binding intensity (ln)” value was determined as 9.78.

On to “TGTTTCTTATTTTTTTCACACACTAAACATTTCAAA [CACACA_site2218]”, for which the “gcPBM binding intensity (ln)” value was found to be 9.9.

“TTTCAAAATGTGTAAAATAAAAATAATATCATTACA [TGCATGCA_negctrl_site521]”: the “gcPBM binding intensity (ln)” value worked out at 9.46.

For “ATGTGATATAAGTACACACACATATGTATATAGAAT [CACACA_site1823]”, the “gcPBM binding intensity (ln)” value was determined as 10.4.

For the sequence “TATATATGTGTTATATACCCTTTTTTATATATTAAT [XGTACX_negctrl_site313]”, the “gcPBM binding intensity (ln)” value was 9.75.

In the case of “CATACATAGATATATACACACATACCTATAAATACA [CACACA_site6513]”, the “gcPBM binding intensity (ln)” value stood at 10.2.

Regarding “TAAAAATCCACAAGCACACAAATGTACATATATATA [CACACA_site2462]”, the “gcPBM binding intensity (ln)” value is 9.88.

“AATTTTGTTAAAAGGACACACAATTCAATATATTAA [CACACA_site647]”: the “gcPBM binding intensity (ln)” value came out at 9.76.

As to “TACACGTTCTACATTTGTACTTAATTTATACATAAG [XGTACX_site1579]”, the “gcPBM binding intensity (ln)” value turned out to be 9.79.

As to TACGTCTTTTTTTTGGTGCATAATTTTTTTGTACAA, the “gcPBM binding intensity (ln)” value was found to be 9.65.

“GCTATTAATTTATAAGCACACAATATAAATATATAT [CACACA_site2251]”: the “gcPBM binding intensity (ln)” value is 9.6.

Turning to “ATTACATGATATATCACACACACATATAGATATATA [CACACA_site7352]”, the “gcPBM binding intensity (ln)” value turned out to be 10.8.

Regarding “TATGTCGACATTTAAAGTACAAAAAAAAAAAAAAAA [XGTACX_site8985]”, the “gcPBM binding intensity (ln)” value amounted to 9.14.

As to “ATTTATTTAAACAAATCACACACAAATATATATACA [CACACA_site8622]”, the “gcPBM binding intensity (ln)” value was 10.1.

In the case of “TATATTAAAATATTCACACACTAACGTAAATCATTG [CACACA_site5520]”, the “gcPBM binding intensity (ln)” value was 9.74.

For the sequence “AGAAAAGAGAAAAGTAGTACAAAGGATCATTTAAAA [XGTACX_site5294]”, the “gcPBM binding intensity (ln)” value was 9.59.

As to “TTAAGTCCGTTAACAGTGCATTTTTTCTTTTATGTA [GTGCAC_site9867]”, the “gcPBM binding intensity (ln)” value was found to be 9.58.

With “ATTAAAAAAATATAAACACACAAAAAAAAAATATAC [CACACA_site1100]”, the “gcPBM binding intensity (ln)” value came to 10.4.

For the sequence “TAATGAAAAAATAAAAGAATAAATAAATAAATAAAT [TGCATGCA_negctrl_site130]”, the “gcPBM binding intensity (ln)” value was determined as 9.7.

With “TATAAAAAGCATAACACACACATGTCAATATATATA [CACACA_site1111]”, the “gcPBM binding intensity (ln)” value came to 10.4.

For the sequence “ATAGAACAGAAAAGGCGTACAATAATATGTAAACAA [XGTACX_site2828]”, the “gcPBM binding intensity (ln)” value was 9.77.

As for “AAAAAAAAAATATGTACACACATATATAATACATAA [CACACA_site1639]”, the “gcPBM binding intensity (ln)” value came to 10.1.

Regarding “TATAAATTTAAAATGACACACACTAAAATTATTTAA [CACACA_site1239]”, the “gcPBM binding intensity (ln)” value was 10.2.

“TATATATATATATATATATATATATATATATGTATA [TGCATGCA_negctrl_site17]”: the “gcPBM binding intensity (ln)” value is 9.35.

In the case of “GTATTATTATTATGCACACAAAAATATTTATACATA [CACACA_site3656]”, the “gcPBM binding intensity (ln)” value was 9.77.

Take “CATATGTCTTGAGATCGTACGTTATTTTTTTTATTT [XGTACX_site1381]”: the “gcPBM binding intensity (ln)” value came out at 9.82.

With “TGGTAAATTTACCGTTGTACATTCATTTATAACATT [XGTACX_site8910]”, the “gcPBM binding intensity (ln)” value is 9.62.

“AAAAATTATATATATATATATATATATATATGTATA [GTGCAC_negctrl_site488]”: the “gcPBM binding intensity (ln)” value amounted to 9.48.

For the sequence “AAGAATATTAATATAAATAAGTAAATAAATAAATAA [CACACA_negctrl_site417]”, the “gcPBM binding intensity (ln)” value stood at 9.74.

Consider “ATATTCATTAACCACACACACAAAAAAAATAAAATT [CACACA_site3801]”, for which the “gcPBM binding intensity (ln)” value worked out at 10.2.

On to “ATATATGTATTTAATACACACAAAACTTTCATTCCA [CACACA_site3531]”, for which the “gcPBM binding intensity (ln)” value was 9.85.

In the case of “TTTTTAGAAAGACATGCATGTAATAAAAATAAATAA [TGCATGCA_site685]”, the “gcPBM binding intensity (ln)” value was 9.82.
